The record followed here is PMC4336329 (PLoS ONE, 2015).

Hit rate of the full screen: of about 310,000 compounds, about 2,200 (0.71%) showed an effect of 50% or more. The effect is printed as a negative number. The list shows a part of the results.

Chain of human ether-à-go-go-related gene (hERG) potassium channel (Q12809 whole entry, looked up): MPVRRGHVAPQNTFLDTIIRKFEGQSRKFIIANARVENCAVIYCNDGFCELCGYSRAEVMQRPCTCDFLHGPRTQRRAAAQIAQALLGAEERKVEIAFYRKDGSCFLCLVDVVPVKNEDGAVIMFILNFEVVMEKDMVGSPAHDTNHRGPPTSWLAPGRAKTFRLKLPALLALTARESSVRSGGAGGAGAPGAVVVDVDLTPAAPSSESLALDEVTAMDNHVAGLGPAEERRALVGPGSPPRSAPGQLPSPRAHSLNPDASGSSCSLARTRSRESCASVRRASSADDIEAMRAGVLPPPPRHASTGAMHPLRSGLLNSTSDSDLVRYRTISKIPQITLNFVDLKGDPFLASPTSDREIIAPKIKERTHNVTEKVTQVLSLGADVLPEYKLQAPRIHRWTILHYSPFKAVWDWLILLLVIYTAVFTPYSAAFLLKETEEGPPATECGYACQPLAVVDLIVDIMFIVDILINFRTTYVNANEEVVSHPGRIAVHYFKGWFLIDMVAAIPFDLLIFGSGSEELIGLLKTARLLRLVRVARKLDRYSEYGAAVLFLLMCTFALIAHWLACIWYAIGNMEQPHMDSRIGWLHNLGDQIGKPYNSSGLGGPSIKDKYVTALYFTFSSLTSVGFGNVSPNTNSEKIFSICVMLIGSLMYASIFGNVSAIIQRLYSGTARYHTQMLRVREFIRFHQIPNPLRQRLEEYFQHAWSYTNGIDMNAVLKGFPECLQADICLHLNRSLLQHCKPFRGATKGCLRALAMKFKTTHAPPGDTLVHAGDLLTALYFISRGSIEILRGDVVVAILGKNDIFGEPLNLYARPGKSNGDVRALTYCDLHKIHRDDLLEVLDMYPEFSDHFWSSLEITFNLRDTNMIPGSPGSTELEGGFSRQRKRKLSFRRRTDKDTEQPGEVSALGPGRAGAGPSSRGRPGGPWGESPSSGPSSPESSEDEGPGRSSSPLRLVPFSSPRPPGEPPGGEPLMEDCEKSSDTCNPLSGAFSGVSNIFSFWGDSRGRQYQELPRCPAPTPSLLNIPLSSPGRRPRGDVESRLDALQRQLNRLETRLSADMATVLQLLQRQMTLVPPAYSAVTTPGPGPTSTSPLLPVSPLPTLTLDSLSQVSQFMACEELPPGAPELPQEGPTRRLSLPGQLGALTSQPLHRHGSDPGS

This experiment addresses human ether-à-go-go-related gene (hERG) potassium channel (human, UniProt Q12809). The experiment in a line: primary screen, population patch clamp on CHO cells stably expressing hERG.
Turning to `O=C(Cc1ccc([N+](=O)[O-])cc1)c1c(O)cc(O)cc1O`, the “hERG current change (%, negative = inhibition) at 1uM” value is recorded as 7.01%. With `Cc1cc(C)c(S(C)(=O)=O)c(N(C)N)n1` the figure was 16.5%. For the molecule `COc1cc(-c2c(NC(=O)c3ccco3)oc3ccccc3c2=O)cc(OC)c1OC`, the “hERG current change (%, negative = inhibition) at 1uM” value came out at 15.3%. As to `Nc1c(C(=O)CSc2n[nH]c(-c3ccccc3Br)n2)c(=O)[nH]c(=O)n1C1CC1`, the “hERG current change (%, negative = inhibition) at 1uM” value stood at 7.19%.

As to `Cc1ccc(-c2nnc3n2N=C(c2ccccc2Br)CS3)cc1`, the “hERG current change (%, negative = inhibition) at 1uM” value is 10.3%. The value for `CCCn1nc(NC(=O)C(C)(C)C)c2cc3cc(OC)ccc3nc21` was 5.56%. With `O=C(NCc1cccs1)C1CCCN(C(=O)Nc2ccc(F)cc2)C1` (centres unmarked) the figure was 8.45%.

In the case of `CCCC(=O)Nc1cc2c3c(c1)CCN3C(=O)CC2`, the “hERG current change (%, negative = inhibition) at 1uM” value turned out to be 23.7%.

For the molecule `CC(=O)c1cc2c(cc1NC(=O)Cn1nc(C)c(C)c(C#N)c1=O)OCO2`, the “hERG current change (%, negative = inhibition) at 1uM” value was 5.05%. The value for `O=C(CSc1nnnn1-c1ccccc1)NC1CCCc2ccccc21` (centres unmarked) was 7.23%. The value for `COCCNC(=O)c1cc(-c2ccccc2OC)on1` was 3.78%; that for `CCc1nnc(NC(=O)CSc2ccc(-c3ccccc3OC)nn2)s1` was 0.444%; that for `CO/N=C/c1ccc(N2CCN(C(=O)c3ccc(F)cc3)CC2)c([N+](=O)[O-])c1` was -78.1%.

Consider `CCOc1c(Br)cc(CNCc2cccs2)cc1OC.Cl`, for which the “hERG current change (%, negative = inhibition) at 1uM” value was 4.69%. The value for `CCC(=O)N1CCN(c2ccc(Cl)cc2NC(=O)Cc2ccccc2)CC1` was -3.75%; that for `COC(=O)C(CCCCNC(=O)c1ccc([N+](=O)[O-])cc1)NC(=O)c1ccc([N+](=O)[O-])cc1` (centres unmarked) was -84.2%. The value for `CCOc1cc(NC(=O)C2CC2)c(OCC)cc1NC(=O)c1ccccn1` was -2.84%; that for `CC1=C(C(=O)OCc2ccccc2)C(c2ccccc2Cl)NC(=O)N1CCCC(=O)O` (centres unmarked) was 12%; that for `CCOc1ccc(Cn2c(=O)oc3ccc(C)cc32)cc1OC` was 17.4%. In the case of `Cc1cc(C)c(N=C2CCCN2Cc2ccccc2)c(C#N)c1`, the “hERG current change (%, negative = inhibition) at 1uM” value amounted to 15.5%. With `COc1cccc(-c2noc(-c3ccc(Cl)nc3)n2)c1` the figure was 13.7%. The value for `CC(C)CCCN1C(N(C)C)=NC[C@@H]1C` was 1.68%. Turning to `CN(C(=O)C1CCC(=O)N(CCc2ccc(Cl)cc2)C1)C1CCOCC1` (centres unmarked), the “hERG current change (%, negative = inhibition) at 1uM” value is listed as 17.5%. With `CC(Oc1ccc2c(-c3ccccc3)cc(=O)oc2c1)C(=O)NCC(O)c1ccccc1` (centres unmarked) the figure was 14.8%; with `CC1=C(C(=O)OCc2ccccc2)C(c2ccc(C)o2)C2=C(CCCC2=O)N1` (centres unmarked), 13.9%. The value for `COc1ccc(C(=O)CC(=O)C(=O)Nc2ccccc2Cl)cc1` was 9.4%.

On to `COc1ccc(N2CC(C(=O)N3CCN(C(=O)c4ccco4)CC3)CC2=O)cc1` (centres unmarked), for which the “hERG current change (%, negative = inhibition) at 1uM” value is -8.81%.

Take `Cc1ccc(C)c(C(=O)Cn2ncc(Cl)c(Cl)c2=O)c1`: the “hERG current change (%, negative = inhibition) at 1uM” value is 11.9%. With `CC(NC(=O)c1ccc(NC(=O)CC2SC(N3CCCC3)=NC2=O)cc1)c1ccc(S(N)(=O)=O)cc1` (centres unmarked) the figure was 16.5%. The value for `COc1ccc(/C=C/C(=O)Nc2cc(F)ccc2C)cc1S(=O)(=O)N1CCOCC1` was 6.23%. The value for `COC(=O)c1ccccc1NS(=O)(=O)c1ccc(O)c(C(=O)O)c1` was -1.03%; that for `CC1OC(Oc2ccc3ccc(=O)oc3c2-c2c(O)ccc3cc(Oc4ccc5ccc(=O)oc5c4)c(=O)oc23)C(O)C(O)C1O` (centres unmarked) was 7.79%; that for `CC(=O)Nc1cc(NC(C)=O)c(CC(C)C)s1` was 13.9%. `CC(CNC(=O)CCS(=O)(=O)c1cc2c(cc1Cl)NC(=O)CO2)c1ccccc1` (centres unmarked): the “hERG current change (%, negative = inhibition) at 1uM” value turned out to be 6.9%. Regarding `COc1ccc(C(=O)COC(=O)C(CCSC)NC(=O)COc2ccccc2)cc1` (centres unmarked), the “hERG current change (%, negative = inhibition) at 1uM” value is -2.6%. For the molecule `Cc1sc2nc(CSc3n[nH]c(N)n3)[nH]c(=O)c2c1C`, the “hERG current change (%, negative = inhibition) at 1uM” value came out at 6.27%.

Regarding `O=C(COc1ccc([N+](=O)[O-])cc1)Nn1cnnc1`, the “hERG current change (%, negative = inhibition) at 1uM” value is given as 19.3%. With `Nc1c(-c2ccc(Cl)cc2)cnn1-c1ccccc1` the figure was 13.4%; with `COc1ccc(NC(=O)CSCC(=O)Nc2sccc2C#N)cc1`, 10.6%. The value for `O=C(CC1Nc2ccccc2NC1=O)Nc1ccccc1NC(=O)CC1Nc2ccccc2NC1=O` (centres unmarked) was 7.68%; that for `CCOC(=O)c1ccccc1NC(=O)c1ccc(N(C)S(C)(=O)=O)cc1` was 6.53%. The value for `COc1ccc(C(CNC(=O)C(C)Oc2ccc(Br)cc2)N2CCCC2)cc1` (centres unmarked) was 7.22%; that for `Cc1cccc(OCC(=O)NCCCNC(=O)c2ccco2)c1` was -0.79%; that for `C=CCOc1ccc(/C(O)=C2/C(=O)C(=O)N(CCCn3ccnc3)C2c2ccco2)cc1` (centres unmarked) was 9.31%. For the molecule `N#Cc1c(-c2ccccc2)cc(C2CC2)nc1SCC(=O)O`, the “hERG current change (%, negative = inhibition) at 1uM” value was determined as 15.3%.

In the case of `CN1CCN(S(=O)(=O)c2ccc(N(C)Cc3cccc(F)c3)nc2)CC1`, the “hERG current change (%, negative = inhibition) at 1uM” value was -5.53%. With `c1ccc(CN2c3ccccc3-c3nc4ccccc4n3C2c2ccccn2)cc1` (centres unmarked) the figure was 2.51%; with `COc1ccc(OC)c(S(=O)(=O)N2CCCC(C(=O)NCCN3CCOCC3)C2)c1` (centres unmarked), 15.8%. The value for `CCCCNC(=O)C(CC)Sc1nc2sc(C(=O)OC)c(C)c2c(=O)n1N` (centres unmarked) was -2.28%; that for `O=C(CN1c2cccc3cccc(c23)S1(=O)=O)Nc1cccc(S(=O)(=O)N2CCOCC2)c1` was 13.4%; that for `O=C(/C=C/c1ccc(O)cc1)OCc1occc(=O)c1O[C@@H]1OC(CO)[C@@H](O)[C@H](O)[C@@H]1O` (some centres unmarked) was 12.9%. With `Cc1ccc(NC(=O)CC(NCCN2CCOCC2)C(=O)O)cc1Cl` (centres unmarked) the figure was 13.1%; with `CC(=O)CC(c1ccccc1)c1c(O)c2ccccc2oc1=O` (centres unmarked), 15.1%. As for `CCN(CC)S(=O)(=O)c1cc(NC(=O)CNc2c(C)n(C)n(-c3ccccc3)c2=O)ccc1C`, the “hERG current change (%, negative = inhibition) at 1uM” value was 16.4%. With `CCCCCCC1(C)NC(=S)N(c2ccccc2)N1` (centres unmarked) the figure was 12.3%. As for `Cc1nnc(SCCC(=O)Nc2ccc(Cl)cc2)o1`, the “hERG current change (%, negative = inhibition) at 1uM” value stood at 22%. In the case of `O=C(N/N=C/c1ccc2c(c1)OCO2)c1ccc(COc2cccc3cccnc23)cc1`, the “hERG current change (%, negative = inhibition) at 1uM” value was -6.17%. As to `CN(C)S(=O)(=O)N1CCCC(C(=O)c2ccc(-c3ccccc3)cc2)C1` (centres unmarked), the “hERG current change (%, negative = inhibition) at 1uM” value was 1.29%.

Take `CCN(CC)C(=O)c1ccc(NC(=O)c2ccc(-c3nn(C)c(=O)c4ccccc34)cc2)cc1`: the “hERG current change (%, negative = inhibition) at 1uM” value came to 12.1%. The value for `CN(C(=O)COC(=O)c1cnc(Cl)c(Cl)c1)C1CCS(=O)(=O)C1` (centres unmarked) was 8.97%; that for `Cc1cc(C)nc(SCc2nc3nc(C)cc(C)n3c2Br)n1` was -1.33%; that for `Cc1ccc(NC(=O)c2cc([N+](=O)[O-])ccc2NCc2cccnc2)cc1` was -17.3%.

In the case of `C#CC(=O)N(c1ccc(OC)cc1OC)C(C(=O)NC1CCCC1)c1cccs1` (centres unmarked), the “hERG current change (%, negative = inhibition) at 1uM” value amounted to 6.01%. The value for `Nn1c(SCC(=O)N2CCCc3ccccc32)nncc1=O` was 11.7%; that for `N=C1C(c2nc(-c3ccc(F)cc3)cs2)=C(O)CN1Cc1ccc(Cl)cc1` was 6.82%; that for `CCC(c1nnc(SCC(=O)N2CC3(C)CC2CC(C)(C)C3)o1)N(C)C` (centres unmarked) was 1.36%. The value for `Cc1cc2c(=O)oc(-c3ccc(F)cc3)nc2s1` was 10.1%. With `O=C(Nc1nc(-c2ccco2)c(-c2ccco2)s1)C1CC(=O)N(c2ccc3c(c2)OCCO3)C1` (centres unmarked) the figure was 12.6%; with `CC(C)c1ccccc1NC(=O)Cn1c(-c2ccccc2Cl)nc2ccccc21`, 3.65%; with `O=C(O)c1ccccc1-c1ccccc1C(=O)Nc1ccc2c(c1)CCC2`, 14.3%. Take `COc1ccccc1N1CCN(C(=O)c2ccco2)CC1`: the “hERG current change (%, negative = inhibition) at 1uM” value is recorded as 12.8%. With `CC1CCc2c(sc(NC(=O)c3ccc(Cn4cc(Br)cn4)o3)c2C(N)=O)C1` (centres unmarked) the figure was 4.35%; with `Cc1nc(Nc2cccc(O)c2)c2c3c(sc2n1)CCC3`, 12.8%; with `OCCC1CN(Cc2cnn(-c3ccccc3Cl)c2)CCN1Cc1ccsc1` (centres unmarked), 6.92%.

On to `CCN(CC(=O)NCCC1=CCCCC1)S(=O)(=O)c1ccccc1`, for which the “hERG current change (%, negative = inhibition) at 1uM” value was 3.77%. In the case of `CCOC(=O)c1cn(Cc2cccc(Cl)c2)nn1`, the “hERG current change (%, negative = inhibition) at 1uM” value was -0.868%. For `O=C(Nc1ccc(CN2CCS(=O)(=O)CC2)cc1)c1ccc(C(F)(F)F)cc1`, the “hERG current change (%, negative = inhibition) at 1uM” value is listed as 12.2%. The value for `CC(Sc1ccccc1)C(=O)N/N=C/c1ccccc1` (centres unmarked) was 11.1%.

On to `CC1(c2ccc(OC(F)F)cc2)NC(=O)N(CC(=O)Nc2ccc(Cl)cc2F)C1=O` (centres unmarked), for which the “hERG current change (%, negative = inhibition) at 1uM” value is given as -6.7%. For `COC(=O)CNC(c1ccccc1)c1cc(Br)ccc1NC(=O)CNC(=O)OCc1ccccc1` (centres unmarked), the “hERG current change (%, negative = inhibition) at 1uM” value is 9.97%.

As to `COCCCN1C(=O)/C(=C\c2cccs2)C(C(=O)OC)=C1C`, the “hERG current change (%, negative = inhibition) at 1uM” value was -3.93%.

For `Cn1[nH]c(C(F)(F)F)c(C=Nc2ccc(Cl)cc2)c1=O`, the “hERG current change (%, negative = inhibition) at 1uM” value came out at 7.04%.

In the case of `COc1ccc(OC)c(CNC(=O)CCCn2ccc3cc(S(=O)(=O)N4CCCC4)ccc32)c1`, the “hERG current change (%, negative = inhibition) at 1uM” value is 13.3%. The value for `Cc1cc(SCC#N)n2nc(C)c(-c3ccccc3)c2n1` was 14.5%; that for `COC(/C=C/Nc1ccc(Br)cc1)=C(C#N)C#N` was -0.86%. With `CCOCCn1c(SCCc2ccccc2)nc2c1c(=O)[nH]c(=O)n2C` the figure was 3.5%.
